In all, about 300,000 compounds went through this assay and about 1,200 (0.4%) were called active. The shares of active, inactive and inconclusive entries below differ from those in the screen. Calls come from the whole dose curve; as a rule, active = well fitted inhibition curve with a large enough effect; inconclusive = small, poorly fitted or top-dose-only effect, or another doubt; inactive = no such curve, though single readings can be large or run the other way. Potencies of inconclusive entries are doubtful fits and often do not repeat.
Molecular target: Lysosomal alpha-glucosidase (Homo sapiens) (UniProt P10253)
Assay: qHTS Assay for Inhibitors and Activators of Human alpha-Glucosidase Cleavage of Glycogen
Conditions: recombinant GAA, glycogen substrate, Amplex Red glucose oxidase fluorescence; series mostly up to 76.4 µM
Source text: NIH Chemical Genomics Center [NCGC] NIH Molecular Libraries Probe Production Centers Network [MLPCN] MLPCN Grant: R03 MH084841-01 Assay Submitter (PI): Wei Zheng NCGC Assay Overview: Alpha-glucosidase is responsible for the hydrolysis of terminal, non-reducing 1,4-linked alpha-D-glucose residues, which releases alpha-D-glucose. It is a lysosomal hydrolase that is required for the degradation of a small percentage (1-3%) of cellular glycogen in humans. Deficiency of this enzyme results in glycogen-storage disease type II (GSDII), also referred to as Pompe disease, an autosomal recessive disorder. Structurally normal glycogen is accumulated in the lysosomes and cytoplasm in affected patients, primarily in muscle tissues. Excessive glycogen storage within lysosomes may interrupt normal functioning of other organelles and leads to cellular injury. In turn, this leads to enlargement and dysfunction of the entire organ involved (eg: cardiomyopathy and muscle weakness). It has been reported that the improper folding and trafficking of alpha-glucosidase resulting from genetic mutations may account for a significant number of Pompe patients. […] We optimized this alpha-glucosidase assay in 1536-well plate format for identification of novel small molecule inhibitors or activators with structures other than the sugar analogs in order to develop new pharmacological chaperones. Previous assays of alpha-Glucosidase have utilized a non-natural fluorescent substrate to probe enzyme activity. The present assay measures enzyme activity on glycogen using a coupled-assay system to glucose oxidase.
NCGC Assay Protocol Summary: This is an enzyme assay using glycogen from bovine liver (Sigma catalog #: G0885) as the substrate and recombinant human alpha-glucosidase as the enzyme preparation. Upon hydrolysis of the substrate, the glucose product can be detected using the Amplex Red Glucose Oxidase Assay Kit (Invitrogen catalog #: A22189). The product of this reaction can be read with a fluorescence plate reader with an excitation at 573 nm and an emission at 610 nm. Data were normalized to the controls for basal activity (without enzyme) and 100% activity (with enzyme). The AC50 values were determined from concentration-response data modeled with the standard Hill equation. Assay buffer for enzyme reaction: 50 mM citric acid (titrated with potassium phosphate to pH 5.0), 0.01% Tween-20 (pH 5.0 is an optimal condition for this enzyme assay) Assay buffer for Amplex Red reaction: Tris-HCl, pH 7.5 1536-well assay protocol for the alpha-glucosidase assay: (1) Add 2 ul/well alpha-glucosidase enzyme solution (4 nM final) (2) Add 23 nL compounds in DMSO solution. The final titration was 0.7 nM to 77 uM. (3) Add 1 ul of glycogen substrate solution (30 ug) (4) Incubate at 37 C for 40 min (5) Add 2 ul tris-HCl buffer with Amplex Red reagents (6) Incubate 45 min at room temperature. (7) Detect the assay plate in a ViewLux plate reader (PerkinElmer) with Ex=573 nm and Em=610nm. Keywords: Alpha-glucosidase, Pompe Disease, pharmacological chaperone, chaperone therapy, high throughput screening, alpha-glucosidase inhibitor, MLSMR, MLSCN, NIH Roadmap, qHTS and NCGC
Potency is the fitted concentration of half-maximal effect.

SMILES | Potency
O=C(Cc1ccc(F)cc1)N1CCC(c2nc3c(nnn3Cc3ccc(Cl)cc3)c(=O)[nH]2)CC1 | inactive
COc1ccc(/C=C/c2nc(C#N)c(N3CCN(c4ccccc4)CC3)o2)cc1OC | inactive
CCN(CC)CCN1C(=O)C(=O)/C(=C(/O)c2ccncc2)C1c1ccccc1 (configuration not stated) | inconclusive: 501 µM [inhibitor, partial curve]
Cc1nn(C)c(C)c1NC(=O)CCl | inconclusive: 28.2 µM [inhibitor, partial curve]
Cc1cc2nc3ccc(=[N+](C)C)cc-3sc2cc1N | inconclusive: 39.5 µM [inhibitor, single point]
COc1ccc(NC(=O)CSC2=NC(=O)CC(C)=N2)cc1 | inconclusive: 15.8 µM [inhibitor, partial curve]
Nc1sc(-c2ccccc2)c(Cc2ccccc2)c1C(=O)O | inconclusive: 20 µM [inhibitor, partial curve]
Cc1ccc(/C=N/Nc2ccc(F)cc2)s1 | inconclusive: 39.8 µM [inhibitor, single point]
COc1ccc(/C=N/Nc2ncccc2[N+](=O)[O-])c(OC)c1 | inconclusive: 15.8 µM [inhibitor, partial curve]
Cc1ccc2nc(CSc3nc(C)cc(C)c3C#N)[nH]c2c1 | inconclusive: 11.1 µM [inhibitor, partial curve]
CCN(C(=O)CSc1nnc(-c2cc(OC)c(OC)c(OC)c2)o1)c1ccccc1 | inactive
Cc1cccc(Nc2ncc(NC(=O)c3cccc(F)c3)c(Nc3cccc(C)c3)n2)c1 | inactive
CC(=O)Nc1ccc(NC(=O)CN(c2ccccc2Cl)S(C)(=O)=O)cc1 | inactive
N#CC1=C(SCC(=O)c2cc3ccccc3oc2=O)NC(=O)C(C#N)C12CCCC2 (configuration not stated) | active: 22.4 µM
O=c1oc2ccccc2nc1/C=C(\O)c1ccccc1 | inconclusive: 10 µM [inhibitor, partial curve, poor fit]
O=C(CC1Nc2cccc3cccc(c23)NC1=O)Nc1ccccc1 (configuration not stated) | inconclusive: 3.14 µM [inhibitor, full curve]
COc1cc(C(Nc2ccccn2)c2ccc3ccc(C)nc3c2O)cc(OC)c1O (configuration not stated) | active: 17.6 µM
O=c1cnnc(N/N=C/c2c[nH]c3ccccc23)[nH]1 | inconclusive: 39.5 µM [inhibitor, single point]
O=c1cc2c(=O)oc3cc(O)c(O)oc3c2c(O)c1O | active: 8.91 µM
Cc1cccn2c(Nc3ccccc3)c(-c3cccs3)nc12 | inconclusive: 12.6 µM [inhibitor, partial curve]
Cc1ccc(-n2nc(C)c3c2OC(N)=C(C#N)C3c2ccoc2)cc1 (configuration not stated) | active: 22.4 µM
O=C(Nc1ccccc1O)c1nc(Cl)ccc1Cl | inconclusive: 50.1 µM [inhibitor, single point]
Oc1ccc(/C=N/N2CCN(Cc3ccccc3)CC2)cc1 | inconclusive: 39.8 µM [inhibitor, partial curve]
CCN1CCc2nc(NC(=O)c3ccccc3)sc2C1 | inconclusive: 19.8 µM [activator, single point]

SMILES | Potency
Cc1ccc(/C=C2\SC(N3CCN(C(c4ccccc4)c4ccccc4)CC3)=NC2=O)o1 | inconclusive: 56.2 µM [inhibitor, partial curve]
COc1ccc(CCNS(=O)(=O)c2cn(C)c(=O)n(C)c2=O)cc1OC | inconclusive: 100 µM [inhibitor, partial curve, poor fit]
CCOc1ccc(CCNC(=O)c2nc(-c3cccc(F)c3)n3c2CCCCC3)cc1OCC | inactive
O=S(=O)(c1cccs1)N1CN(C2CCCC2)c2nc3ccccc3nc21 | inactive
COc1cc(O)c(C(CCN2CCCC(C)C2)c2ccc(N(C)C)cc2)c(OC)c1 (configuration not stated) | inconclusive: 35.5 µM [activator, single point]
Cc1cccc(NC(=O)CC2SC(=O)N(c3ccccc3)C2=O)c1 (configuration not stated) | inconclusive: 14 µM [inhibitor, partial curve]
CC(=O)c1ccc(N2CCN(S(=O)(=O)c3ccc4c(c3)NC(=O)CO4)CC2)cc1 | inactive
CCS(=O)(=O)N1CCc2cc(C(=O)N3CCN(c4ccccc4OC)CC3)ccc21 | inactive
Cc1nn(-c2ccccc2)c(C)c1/C=N/N1CCN(c2ccccc2)CC1 | inactive
Cc1ccc(-n2c(=O)c3sc4ccccc4c3n(C)c2=O)cc1F | inactive
CCc1ccc(N2C(=O)CN(Cc3cccs3)C2=S)cc1 | inconclusive: 56.2 µM [inhibitor, single point]
COc1ccc(N=Cc2sc(O)c3ccccc23)cc1 | active: 20 µM
N#Cc1ccc(N2CCN(S(=O)(=O)c3ccc4c(c3)CC(=O)N4)CC2)cc1 | active: 6.54 µM
C=CCC1CCCCC12NC(=O)N(c1ccccc1)N2 (configuration not stated) | inconclusive: 28 µM [inhibitor, single point]
Cc1cc(S(=O)(=O)Nc2ccc(C(=O)N3CCN(c4ccccc4O)CC3)cc2)ccc1F | inactive
C/C(=N/NC(=O)Cc1cccc2ccccc12)c1cccs1 | inconclusive: 28 µM [inhibitor, single point]
O=C1c2ccccc2C(=O)N1OCc1cccc(Cl)c1 | inactive
CC(C)CCNC(=O)c1ccc2c(c1)NC(=O)C(C(C)C)N2 (configuration not stated) | inconclusive: 12.6 µM [inhibitor, partial curve]
Cc1ccccc1Nc1c(-c2cccc(Cl)c2)nc2ncccn12 | inconclusive: 28.2 µM [inhibitor, single point]
CCn1c2ccccc2c2cc(CN3CCN(Cc4cc(OC)c(O)c(OC)c4)CC3)ccc21 | inconclusive: 14.1 µM [inhibitor, partial curve]
Cc1ccc(N(Cc2cccs2)C(=O)C(C)Oc2ccc(Cl)c(C)c2)cc1 (configuration not stated) | inactive
NC(=NCCCCCCN=C(N)/N=C(\N)Nc1ccc(Cl)cc1)/N=C(\N)Nc1ccc(Cl)cc1 | inactive
CC(C)c1ccc(Nc2nnc(SCC(=O)c3nnc(-c4ccccc4)o3)s2)cc1 | inconclusive: 11.2 µM [inhibitor, partial curve]
CN(C)c1ccc(/C=C/C=N/Nc2nc(N3CCOCC3)nc(N3CCOCC3)n2)cc1 | inconclusive: 3.14 µM [inhibitor, single point]

SMILES | Potency
O=C(NCc1cccc(Cl)c1)N1CCN(S(=O)(=O)c2ccccc2F)CC1 | inactive
Cc1ccc(Nc2nc(-c3ccc(C)cc3)c(CC(=O)O)s2)cc1 | inconclusive: 35.5 µM [inhibitor, single point]
CC(C)(C)C(=O)OCc1nc(-c2ccc(O)c(O)c2)cs1 | inconclusive: 17.8 µM [inhibitor, partial curve]
Cc1ccc2c(c1)N(C(=O)N1CCC(C(=O)NCc3ccccc3C)CC1)CC(C)O2 (configuration not stated) | inactive
CC1=Nc2ccccc2N=C(N)C1c1ccccc1 (configuration not stated) | active: 15.8 µM
Cc1ccc(NC(=O)CC2S/C(=N/N=C/C=C/c3ccccc3)NC2=O)cc1Cl (configuration not stated) | inactive
CN(C)c1ccc(CN(C(=O)C2COc3ccccc3O2)C2CCS(=O)(=O)C2)cc1 (configuration not stated) | inconclusive: 28.2 µM [inhibitor, partial curve]
COc1cc(C2C3=C(CCCC3=O)Nc3[nH]n(-c4ccccc4)c(=O)c32)ccc1OC(C)=O (configuration not stated) | inconclusive: 31.4 µM [inhibitor, single point]
COc1cc(CNc2ncc(-c3ccc(Cl)cc3)n2C)cc(OC)c1OC | inconclusive: 35.5 µM [inhibitor, single point]
COc1cc(CNc2ccc3[nH]c(=O)[nH]c3c2)ccc1OCc1ccc(F)cc1Cl | inconclusive: 22.4 µM [inhibitor, partial curve]
COc1ccc(NC(=O)c2c(NC(=O)C(F)(F)F)sc3c2CCCCC3)cc1 | inactive
CCCS(=O)(=O)N1CC(=O)N(c2cccc(F)c2)C(C)(C(=O)NC2CCCCCC2)C1 (configuration not stated) | inactive
NNc1nc2c(Cl)c(Cl)ccc2s1 | inconclusive: 14.1 µM [inhibitor, partial curve]
CO/N=C/CC(=O)c1ccc([N+](=O)[O-])c(CS(=O)(=O)c2ccc(Cl)cc2)c1 | inconclusive: 39.5 µM [inhibitor, single point]
COc1ccccc1NNC(=O)C(O)(c1ccccc1)c1ccccc1 | inconclusive: 8.91 µM [inhibitor, full curve]
CCN(CC)S(=O)(=O)c1ccc(NN)nc1 | inconclusive: 39.5 µM [inhibitor, single point]
CCOc1ccc(Nc2oc(-c3ccccc3Cl)nc2C#N)cc1 | inconclusive: 35.5 µM [inhibitor, partial curve]
Cc1ccc2ccc(C(Nc3cccc(C(F)(F)F)c3)c3cccnc3)c(O)c2n1 (configuration not stated) | inconclusive: 50.1 µM [inhibitor, single point]
O=C1c2ccccc2NC(c2ccc([N+](=O)[O-])cc2)N1O (configuration not stated) | inconclusive: 31.6 µM [inhibitor, single point]
COc1cc(C)c(N)cc1C(C)C | active: 14.1 µM
Cc1ccc(NNC(=O)c2ccno2)cc1C | inconclusive: 11.2 µM [inhibitor, partial curve]
COc1ccc(OS(=O)(=O)c2ccc(N3C(=O)CCC3=O)cc2)cc1 | inconclusive: 50.1 µM [inhibitor, single point]
Oc1c(CN2CCCC(C(F)(F)F)C2)cc(Cl)c2ccccc12 (configuration not stated) | inconclusive: 39.8 µM [inhibitor, single point]
[O-]C1=N/[N+](=C/c2ccccc2Cl)CC1 | inconclusive: 22.4 µM [inhibitor, partial curve]

From PubChem BioAssay AID2100 (National Center for Advancing Translational Sciences (NCATS), 2009)
